# Test results: PubChem BioAssay AID540317 (National Center for Advancing Translational Sciences (NCATS), 2011)
# Hit rate of the full screen: of about 390,000 compounds, about 2,200 (0.56%) were called active. This list was built around the results that the source calls inconclusive (neither active nor inactive); the mix of calls is not that of the screen. Calls come from the whole dose curve; as a rule, active = well fitted inhibition curve with a large enough effect; inconclusive = small, poorly fitted or top-dose-only effect; inactive = no such curve, though single readings can be large or run the other way. Potencies beside an inconclusive call are fits to weak or partial responses and may not hold up.
# Molecular target: Chromobox protein homolog 1 (Homo sapiens) (UniProt P83916)
# Experiment: HTS for Inhibitors of HP1-beta Chromodomain Interactions with Methylated Histone Tails; note: nearly all actives have a fitted effect of over 70% in size
# Settings: AlphaScreen HP1-beta / biotin-H3K9me3 peptide binding; series mostly up to 114 µM
# Procedure, shortened: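 HP1-beta protein (50 nM final) preincubated 30 min at room temperature with biotinylated H3(1-18)K9me3 peptide (50 nM) in PBS pH 7.4, 0.01% Tween-20, then compound added for 30 min. AlphaScreen streptavidin donor/nickel chelate acceptor beads (10 ug/mL final), 30 min dark, luminescence read.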
# Potency is the fitted concentration of half-maximal effect; tags give direction and shape of the fitted curve.
# Chain of UniProt P83916 (P83916 whole entry, looked up): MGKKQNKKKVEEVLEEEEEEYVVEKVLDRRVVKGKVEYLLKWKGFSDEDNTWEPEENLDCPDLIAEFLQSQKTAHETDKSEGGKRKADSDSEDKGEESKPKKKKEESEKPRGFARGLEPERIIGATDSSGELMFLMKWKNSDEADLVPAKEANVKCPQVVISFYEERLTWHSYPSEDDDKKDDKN
row,SMILES,Potency
1,O=[N+]([O-])NC1=NCN(Cc2ccco2)CN1Cc1ccco1,"inconclusive: 39.8 µM [inhibitor, single point]"
2,CN1CN(c2ccccc2)C2(CCN(CCCSc3ccccc3NC(=O)/C=C/c3ccccc3)CC2)C1=O,"inconclusive: 14.1 µM [inhibitor, full curve, poor fit]"
3,Cc1ccsc1C(=O)C1CCCN(Cc2cc(C(C)C)n[nH]2)C1 (centres undefined),"inconclusive: 89.1 µM [inhibitor, single point]"
4,O=C(NCc1ccco1)C(c1ccco1)N(C(=O)Cn1nnc2ccccc21)c1ccc2c(c1)CCC2 (centres undefined),"inconclusive: 89.1 µM [inhibitor, partial curve, poor fit]"
5,O=c1[nH]c(=S)n(-c2ccccc2F)c(O)c1C=Nc1ccc(N2CCOCC2)cc1,inactive
6,CC(=O)NC1N=C(C)N(c2ccccc2)C1=O (centres undefined),"inconclusive: 89.1 µM [inhibitor, single point]"
7,COc1ccc(OC)c(C2C(C#N)=C(N)Oc3c2c(C)nn3-c2ccc(C)cc2)c1 (centres undefined),"inconclusive: 25.1 µM [inhibitor, full curve]"
8,CN(C)c1ccc(C=C2C(=O)NC(=S)NC2=O)cc1[N+](=O)[O-],"inconclusive: 39.8 µM [inhibitor, partial curve]"
9,CCOC(=O)c1ccc(NC(c2ccc(N(C)C)cc2)P(=O)(OC(C)C)OC(C)C)cc1 (centres undefined),"inconclusive: 44.7 µM [inhibitor, partial curve]"
10,CCCCC/C(=N\O)c1c[nH]c2ccccc12,inactive
11,O=C1NC(=O)N(c2ccccc2F)C(=O)/C1=C/c1ccc(Sc2nc3ccccc3[nH]2)o1,"inconclusive: 39.8 µM [inhibitor, partial curve]"
12,CC1CCN(CC(=O)c2ccc3c(c2)OCCO3)CC1,"inconclusive: 70.8 µM [inhibitor, partial curve]"
13,Cn1cccc1CN1CCN(C(=O)COc2ccccc2)CC1,"inconclusive: 50.1 µM [inhibitor, partial curve]"
14,Cc1ccccc1-n1c(/C=C/c2ccccn2)nc2ccccc2c1=O,inactive
15,CCC(C)N1C(=O)/C(=C/c2ccc3c(c2)CCN3CCCCl)C(=O)NC1=S (centres undefined),"inconclusive: 50.1 µM [inhibitor, partial curve, poor fit]"
16,O=C(Cc1ccccc1)N1CCN(CC2CC=CCC2)CC1 (centres undefined),"inconclusive: 11.2 µM [inhibitor, partial curve, poor fit]"
17,COc1ccc(OCC(=O)N2CCN(Cc3ccc(SC)cc3)CC2)cc1,"inconclusive: 14.1 µM [inhibitor, full curve, poor fit]"
18,N#Cc1c(/N=C/C2C(=O)NC(=S)NC2=O)sc2c1CCCC2,inactive
19,O=C1CC=C2C3CC4N(CCC45c4cc(O)c(O)cc4N1C25)CC3=CCBr (centres undefined),"inconclusive: 3.16 µM [inhibitor, full curve, poor fit]"
20,COc1ccc(NC(=O)CSc2oc(-c3cccs3)nc2S(=O)(=O)c2ccccc2)c(OC)c1,"inconclusive: 70.8 µM [inhibitor, single point]"
21,Cc1ccccc1-n1c(/C=C/c2ccc(N(C)C)cc2)nc2ccccc2c1=O,inactive
22,COc1ccc(C=C2C(=O)N(C)C(=O)N(C)C2=O)cc1COc1ccc(NC(C)=O)cc1,inactive
23,COc1cccc(CNCCc2cccc(F)c2)c1OC,"inconclusive: 50.1 µM [inhibitor, partial curve, poor fit]"

row,SMILES,Potency
1,CC(C)c1ccc(C2NCc3ccccc3-n3cccc32)cc1 (centres undefined),"inconclusive: 50.1 µM [inhibitor, partial curve]"
2,Cc1cccc(CN2CCN(c3ccc(Cl)cc3)CC2)c1,"inconclusive: 20 µM [inhibitor, full curve]"
3,C/C(=N\Nc1cccc2ccccc12)c1c(O)n(Cc2ccccc2)c(=O)[nH]c1=O,"inconclusive: 70.8 µM [inhibitor, single point]"
4,O=C(c1cc2ccccn2n1)N1CCN(Cc2ccccc2)CC1,inactive
5,CCNC(=S)NCCC1=c2ccccc2=N/C1=C\c1c(O)n(C)c(=O)n(C)c1=O,"inconclusive: 7.94 µM [inhibitor, partial curve, poor fit]"
6,CC[C@]12CC[C@H](O)CC1=CCC1C2CC[C@]2(C)C(=O)CCC12 (some centres undefined),inactive
7,CCC1C(c2cc(OC)c(OC)c(OC)c2)c2cc3c(cc2OC1N1CCCC1)OCO3 (centres undefined),"inconclusive: 39.8 µM [inhibitor, partial curve]"
8,Clc1ccccc1CN1CCN(c2ccccc2)CC1,"inconclusive: 79.4 µM [inhibitor, partial curve, poor fit]"
9,O=C(Cc1ccccc1)N1CCN(Cc2ccccn2)CC1,"inconclusive: 17.8 µM [inhibitor, full curve]"
10,CN(C)CCN(Cc1ccccc1)c1ccnc(N(C)C)c1C#N,"inconclusive: 39.8 µM [inhibitor, single point]"
11,CC[n+]1c(/C=C/C=C/c2ccc(N(C)C)cc2)sc2ccccc21,"inconclusive: 56.2 µM [inhibitor, partial curve, poor fit]"
12,c1ccc(C[n+]2ccccc2)cc1,inactive
13,Cc1cc(N(C)C)ccc1N=Nc1ccc(N)cc1,active: 44.7 µM
14,COc1ccccc1CNCCc1ccc(F)cc1,"inconclusive: 56.2 µM [inhibitor, partial curve, poor fit]"
15,COc1ccc(OCC(=O)N2CCN(C(C)C)CC2)cc1,"inconclusive: 22.4 µM [inhibitor, full curve]"
16,c1cc(CNCCc2ccc3c(c2)OCO3)ccn1,"inconclusive: 22.4 µM [inhibitor, full curve, poor fit]"
17,O=C(COc1ccc(Br)cc1)N1CCN(Cc2ccncc2)CC1,"inconclusive: 11.2 µM [inhibitor, partial curve]"
18,COc1ccc(CCN(C)Cc2ccc(F)cc2F)cc1OC,"inconclusive: 39.8 µM [inhibitor, partial curve]"
19,CCCCn1c(O)c(C(C)=NCCN2CCCCC2)c(=O)[nH]c1=O,inactive
20,CC1(C)N(O)C2CCCCC2N1O (centres undefined),inactive
21,COc1ccccc1N1CCN(Cc2ccc(Br)s2)CC1,"inconclusive: 79.4 µM [inhibitor, partial curve]"
22,CC(C)N1C(=O)/C(=C/C=C/c2ccco2)C(=O)N(Cc2ccco2)C1=O,active: 28.2 µM
23,COc1cccc(CCNCc2ccc(SC)cc2)c1,"inconclusive: 56.2 µM [inhibitor, single point]"

row,SMILES,Potency
1,CCOc1ccc(CN(CCc2ccc3c(c2)OCO3)Cc2ccc(C)cc2)cc1,"inconclusive: 14.1 µM [inhibitor, partial curve, poor fit]"
2,CC(C)(C)N1C(=O)NC(=O)/C(=C\c2ccc3c(c2)CCN3CCCCl)C1=O,"inconclusive: 31.6 µM [inhibitor, partial curve]"
3,COc1ccccc1N1CCN(Cc2ccc(Cl)cc2Cl)CC1,"inconclusive: 79.4 µM [inhibitor, single point]"
4,COc1ccc(OC)c(N2C(=O)/C(=C/c3ccco3)C(=O)NC2=S)c1,active: 3.16 µM
5,c1ccc2c(CN3CCN(C4CCCCC4)CC3)c[nH]c2c1,"inconclusive: 70.8 µM [inhibitor, partial curve]"
6,COc1ccccc1N1CCN(CCc2c[nH]c3cc4c(cc23)OCO4)CC1,"inconclusive: 50.1 µM [inhibitor, partial curve, poor fit]"
7,Cc1ccccc1N1C(=O)NC(=O)/C(=C\c2ccc3c(c2)CCCN3Cc2ccccc2)C1=O,"inconclusive: 39.8 µM [inhibitor, single point]"
8,O=c1c2ccccc2nc(/C=C/c2cccnc2)n1Cc1ccccc1,"inconclusive: 20 µM [inhibitor, single point]"
9,O=C1NC(=S)NC(=O)C1=Cc1ccc2c(c1)CCN2CCCCl,"inconclusive: 10 µM [inhibitor, full curve, poor fit]"
10,CCN(CC)C(=O)[C@H]1C[C@H](CC(=O)NCC23CC4CC(CC(C4)C2)C3)C(=O)N2CCc3c([nH]c4cc(-c5ccco5)ccc34)[C@]12C,"inconclusive: 15.8 µM [inhibitor, full curve]"
11,COc1ccccc1CN1CCN(C(=O)Cc2ccccc2)CC1,active: 14.1 µM
12,C[n+]1c2ccccc2nc2ccc(NCCO)cc21,active: 39.8 µM
13,Cc1ccc(-c2nc(N3CCOCC3)s[n+]2-c2ccccc2)cc1,"inconclusive: 10 µM [inhibitor, partial curve, poor fit]"
14,CCN(CC)c1ccc(CNCCc2ccccc2F)cc1,"inconclusive: 50.1 µM [inhibitor, partial curve, poor fit]"
15,Cc1cc(/C=C2\C(=O)NC(=O)N(Cc3ccco3)C2=O)c(C)n1-c1ccc(O)cc1,"inconclusive: 35.5 µM [inhibitor, single point]"
16,CC(C)C1(C)N=C(c2nc3ccccc3cc2C(=O)O)NC1=O (centres undefined),inactive
17,O=c1[nH]c(=S)n(-c2ccc(F)cc2)c(O)c1/C=N/N1CCOCC1,inactive
18,Cc1cc(C)nc(NS(=O)(=O)c2ccc(N=Cc3c(O)n(C)c(=O)n(C)c3=O)cc2)n1,inactive
19,CC(C)(C)n1cc(C(=O)c2ccccc2)cc1-c1ccccc1,"inconclusive: 20 µM [inhibitor, full curve]"
20,COc1ccc(OCC#CCN2CCC(C)CC2)cc1,active: 35.5 µM
21,CC1(C)OC(c2ccccc2)=C/C(=C/C=C2C(=O)NC(=S)NC2=O)O1,active: 11.2 µM
22,CCC1([N+](=O)[O-])COP(N)(=O)OC1 (centres undefined),inactive
23,N#CCCn1cc(C(=O)Nc2ccc(F)cc2)c(-c2ccc([N+](=O)[O-])cc2)n1,"inconclusive: 35.5 µM [inhibitor, single point]"
